# The list shows a part of the results.
# B1: DGL (Dioclea grandiflora), P08902 (protein)
# chain: ADTIVAVELDSYPNTDIGDPNYPHIGIDIKSIRSKSTARWNMQTGKVGTVHISYNSVAKRLSAVVSYSGSSSTTVSYDVDLNNVLPEWVRVGLSATTGLYKETNTILSWSFTSKLKTNSIADENSLHFSFHKFSQNPKDLILQGDAFTDSDGNLELTKVSSSGDPQGNSVGRALFYAPVHIWESSAVVASFDATFTFLIKSPDREPADGITFFIANTDTSIPSGSGGRLLGLFPDAN
# Key:
# Assay in all cases: glycan array binding signal (z-score within array); higher = stronger binding
# Conditions in all cases: glycan notation: IUPAC condensed, linker removed
# Gal(b1-3)Gal = target: Gal(b1-3)Gal
# Outline: (§1)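 The binding signal is a Z-score computed within each array and averaged over linkers. Arrays of the same protein sequence at different concentrations or buffers were also averaged together. Data originate from 3228 arrays in the Consortium for Functional Glycomics database, kept only where the protein sequence was available.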
# Gal(b1-3)Gal(b1-4)GlcNAc = target: Gal(b1-3)Gal(b1-4)GlcNAc
# Outline: as §1
# [1] = target: Gal(b1-3)Gal(b1-4)GlcNAc(b1-2)Man(a1-3)[Gal(b1-3)Gal(b1-4)GlcNAc(b1-2)Man(a1-6)]Man(b1-4)GlcNAc(b1-4)GlcNAc
# Outline: as §1
# Gal(b1-3)GalNAc = target: Gal(b1-3)GalNAc
# Outline: as §1
# [2] = target: Gal(b1-3)GalNAc(a1-3)[Fuc(a1-2)]Gal(b1-4)Glc
# Outline: as §1
# [3] = target: Gal(b1-3)GalNAc(a1-3)[Fuc(a1-2)]Gal(b1-4)GlcNAc
# Outline: as §1
# [4] = target: Gal(b1-3)GalNAc(b1-3)Gal(a1-4)Gal(b1-4)Glc
# Outline: as §1
# [5] = target: Gal(b1-3)GalNAc(b1-4)Gal(b1-4)Glc
# Outline: as §1
# [6] = target: Gal(b1-3)GalNAc(b1-4)[Neu5Ac(a2-3)]Gal(b1-4)Glc
# Outline: as §1
# Gal(b1-3)GlcNAc = target: Gal(b1-3)GlcNAc
# Outline: as §1
# [7] = target: Gal(b1-3)GlcNAc(b1-2)Man(a1-3)[Gal(b1-3)GlcNAc(b1-2)Man(a1-6)]Man(b1-4)GlcNAc(b1-4)GlcNAc
# Outline: as §1
# [8] = target: Gal(b1-3)GlcNAc(b1-2)Man(a1-3)[Gal(b1-3)GlcNAc(b1-2)Man(a1-6)]Man(b1-4)GlcNAc(b1-4)[Fuc(a1-6)]GlcNAc
# Outline: as §1
# [9] = target: Gal(b1-3)GlcNAc(b1-3)Gal(b1-3)GlcNAc
# Outline: as §1
# [10] = target: Gal(b1-3)GlcNAc(b1-3)Gal(b1-4)Glc
# Outline: as §1
# [11] = target: Gal(b1-3)GlcNAc(b1-3)Gal(b1-4)GlcNAc
# Outline: as §1
# [12] = target: Gal(b1-3)[Fuc(a1-4)]GlcNAc
# Outline: as §1
# [13] = target: Gal(b1-3)[Fuc(a1-4)]GlcNAc(b1-2)Man(a1-3)[Gal(b1-3)[Fuc(a1-4)]GlcNAc(b1-2)Man(a1-6)]Man(b1-4)GlcNAc(b1-4)GlcNAc
# Outline: as §1
# [14] = target: Gal(b1-3)[Fuc(a1-4)]GlcNAc(b1-2)Man(a1-3)[Gal(b1-3)[Fuc(a1-4)]GlcNAc(b1-2)Man(a1-6)]Man(b1-4)GlcNAc(b1-4)[Fuc(a1-6)]GlcNAc
# Outline: as §1
# [15] = target: Gal(b1-3)[Fuc(a1-4)]GlcNAc(b1-3)Gal(b1-3)[Fuc(a1-4)]GlcNAc
# Outline: as §1
# [16] = target: Gal(b1-3)[Fuc(a1-4)]GlcNAc(b1-3)Gal(b1-4)GlcNAc
# Outline: as §1
# [17] = target: Gal(b1-3)[Fuc(a1-4)]GlcNAc(b1-3)Gal(b1-4)[Fuc(a1-3)]GlcNAc
# Outline: as §1
# [18] = target: Gal(b1-3)[GlcNAc(b1-6)]GalNAc
# Outline: as §1
# [19] = target: Gal(b1-3)[Neu5Ac(a2-6)]GalNAc
# Outline: as §1
# [20] = target: Gal(b1-3)[Neu5Ac(a2-6)]GlcNAc(b1-6)Gal(b1-4)Glc
# Outline: as §1
# [21] = target: Gal(b1-3)[Neu5Ac(b2-6)]GalNAc
# Outline: as §1
# [22] = target: Gal(b1-4)GalNAc(a1-3)[Fuc(a1-2)]Gal(b1-4)GlcNAc
# Outline: as §1
# [23] = target: Gal(b1-4)GalNAc(b1-3)[Fuc(a1-2)]Gal(b1-4)GlcNAc
# Outline: as §1
# Gal(b1-4)Glc = target: Gal(b1-4)Glc
# Outline: as §1
# Gal(b1-4)Glc6S = target: Gal(b1-4)Glc6S
# Outline: as §1
# Gal(b1-4)GlcNAc = target: Gal(b1-4)GlcNAc
# Outline: as §1
# [24] = target: Gal(b1-4)GlcNAc(a1-6)Gal(b1-4)GlcNAc
# Outline: as §1
# [25] = target: Gal(b1-4)GlcNAc(b1-2)Man(a1-3)Man(b1-4)GlcNAc(b1-4)GlcNAc
# Outline: as §1
# [26] = target: Gal(b1-4)GlcNAc(b1-2)Man(a1-3)[Gal(b1-4)GlcNAc(b1-2)Man(a1-6)]Man(b1-4)GlcNAc(b1-4)GlcNAc
# Outline: as §1
# [27] = target: Gal(b1-4)GlcNAc(b1-2)Man(a1-3)[Gal(b1-4)GlcNAc(b1-2)Man(a1-6)]Man(b1-4)GlcNAc(b1-4)[Fuc(a1-6)]GlcNAc
# Outline: as §1
# [28] = target: Gal(b1-4)GlcNAc(b1-2)Man(a1-3)[Man(a1-6)]Man(b1-4)GlcNAc(b1-4)GlcNAc
# Outline: as §1
# [29] = target: Gal(b1-4)GlcNAc(b1-2)Man(a1-6)Man(b1-4)GlcNAc(b1-4)GlcNAc
# Outline: as §1
# [30] = target: Gal(b1-4)GlcNAc(b1-2)Man(a1-6)[Man(a1-3)]Man(b1-4)GlcNAc(b1-4)GlcNAc
# Outline: as §1
# [31] = target: Gal(b1-4)GlcNAc(b1-2)[Gal(b1-4)GlcNAc(b1-4)]Man(a1-3)[Gal(b1-4)GlcNAc(b1-2)Man(a1-6)]Man(b1-4)GlcNAc(b1-4)GlcNAc
# Outline: as §1
# [32] = target: Gal(b1-4)GlcNAc(b1-3)Gal(b1-3)GlcNAc
# Outline: as §1
# [33] = target: Gal(b1-4)GlcNAc(b1-3)Gal(b1-4)Glc
# Outline: as §1
# [34] = target: Gal(b1-4)GlcNAc(b1-3)Gal(b1-4)GlcNAc
# Outline: as §1
# [35] = target: Gal(b1-4)GlcNAc(b1-3)Gal(b1-4)GlcNAc(b1-3)Gal(b1-4)GlcNAc
# Outline: as §1
# [36] = target: Gal(b1-4)GlcNAc(b1-3)Gal(b1-4)[Fuc(a1-3)]GlcNAc(b1-3)Gal(b1-4)[Fuc(a1-3)]GlcNAc
# Outline: as §1
# [37] = target: Gal(b1-4)GlcNAc(b1-3)GalNAc
# Outline: as §1
# [38] = target: Gal(b1-4)GlcNAc(b1-3)[Gal(b1-4)GlcNAc(b1-6)]Gal(b1-4)GlcNAc
# Outline: as §1
binder,measurement,setting,value
B1,glycan array binding signal (z-score),Gal(b1-3)Gal,-0.186
same,glycan array binding signal (z-score),Gal(b1-3)Gal(b1-4)GlcNAc,-0.181
same,glycan array binding signal (z-score),[1],-0.172
same,glycan array binding signal (z-score),Gal(b1-3)GalNAc,-0.17
same,glycan array binding signal (z-score),[2],-0.165
same,glycan array binding signal (z-score),[3],-0.176
same,glycan array binding signal (z-score),[4],-0.177
same,glycan array binding signal (z-score),[5],-0.178
same,glycan array binding signal (z-score),[6],-0.184
same,glycan array binding signal (z-score),Gal(b1-3)GlcNAc,-0.172
same,glycan array binding signal (z-score),[7],-0.164
same,glycan array binding signal (z-score),[8],-0.009
same,glycan array binding signal (z-score),[9],-0.176
same,glycan array binding signal (z-score),[10],-0.18
same,glycan array binding signal (z-score),[11],-0.18
same,glycan array binding signal (z-score),[12],-0.18
same,glycan array binding signal (z-score),[13],-0.077
same,glycan array binding signal (z-score),[14],-0.147
same,glycan array binding signal (z-score),[15],-0.171
same,glycan array binding signal (z-score),[16],-0.18
same,glycan array binding signal (z-score),[17],-0.175
same,glycan array binding signal (z-score),[18],-0.18
same,glycan array binding signal (z-score),[19],-0.176
same,glycan array binding signal (z-score),[20],-0.172
same,glycan array binding signal (z-score),[21],-0.172
same,glycan array binding signal (z-score),[22],-0.172
same,glycan array binding signal (z-score),[23],-0.178
same,glycan array binding signal (z-score),Gal(b1-4)Glc,-0.179
same,glycan array binding signal (z-score),Gal(b1-4)Glc6S,-0.176
same,glycan array binding signal (z-score),Gal(b1-4)GlcNAc,-0.177
same,glycan array binding signal (z-score),[24],-0.178
same,glycan array binding signal (z-score),[25],-0.177
same,glycan array binding signal (z-score),[26],-0.174
same,glycan array binding signal (z-score),[27],-0.175
same,glycan array binding signal (z-score),[28],-0.151
same,glycan array binding signal (z-score),[29],-0.177
same,glycan array binding signal (z-score),[30],-0.028
same,glycan array binding signal (z-score),[31],-0.161
same,glycan array binding signal (z-score),[32],-0.177
same,glycan array binding signal (z-score),[33],-0.17
same,glycan array binding signal (z-score),[34],-0.18
same,glycan array binding signal (z-score),[35],-0.178
same,glycan array binding signal (z-score),[36],-0.174
same,glycan array binding signal (z-score),[37],-0.177
same,glycan array binding signal (z-score),[38],-0.178
